Experimental findings from ChEMBL document CHEMBL1201862, “PubChem BioAssay data set” (2004) are described below.

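Cultured in 96-well plates, cells were exposed to test compound for 48 hours across five concentrations. At the GI50, growth is halved.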 Calls of active or inactive are those of the source. Cut-off read from the data, not from the text of the source: active = GI50 up to about 1.1 µM and inactive = higher.

The assay has as its system NCI-H322M. Description: inhibition of tumour cell growth, NCI panel, 48 h.
Take `CCOC(=O)C1=C(Nc2ccccc2)SCC1=O`: the GI50 was inactive: > 100 µM. The figure for `Cc1oc2nc(N(C)C)n3c(C)nnc3c2c1C` is inactive: > 100 µM.

`Cn1c(=O)c2c(nc(Nc3ccc(Cl)cc3)n3c(=O)n(-c4ccccc4)c(=O)n23)n(C)c1=O`: the GI50 was inactive: > 100 µM. With `CC(=O)c1ccccc1NS(=O)(=O)c1ccc2nc(C)n(NS(=O)(=O)c3ccccc3C(C)=O)c(=O)c2c1`, the GI50 was inactive: > 100 µM.

In the case of `O=c1[nH]c2ccc([N+](=O)[O-])cc2nc1/C(=N/Nc1ccccc1)C(O)c1ccco1` (centres undefined), the GI50 was inactive: 44 µM.

Consider `COc1c2c(c(O)c3c4c(c(C)cc13)C1OC3(C(OC)OC5CC(C)(O)C(OC6CC(C)(O)C(O)C(C)O6)C(C)O5)OC1C(OC)(O4)C31CO1)C(=O)C(O)CC2OC1CC(C)(O)C(OC(C)=O)C(C)O1` (centres undefined), for which the GI50 is active: < 0.01 µM. On to `CSC1=C(C)C(/C=N/Nc2ccc([N+](=O)[O-])cc2)=C(C)N(c2ccccc2)S1(=O)=O`, for which the GI50 was inactive: > 100 µM. With `COc1ncnc2c1cnn2Cc1cn(CCCCO)nn1`, the GI50 is inactive: > 100 µM.

Take `Cc1nc2ccccc2n1Cc1nnc2n1N=C(c1ccccc1)CS2`: the GI50 was inactive: 31.9 µM. Take `CC1=C(C(=O)NNS(=O)(=O)c2ccc(C)cc2)CC(C(=O)NNS(=O)(=O)c2ccc(C)cc2)=C(C)N1`: the GI50 is inactive: > 100 µM. As for `CCN(CC)CCSc1nc(-c2c[nH]c3nc(C)ccc3c2=O)n[nH]1`, the GI50 was inactive: > 100 µM. On to `N#CCc1c(F)c(F)c(F)c(F)c1F`, for which the GI50 is inactive: > 100 µM. For the compound `CSC(=N)NNC(=O)CCC(=O)Nc1ccccc1C(F)(F)F`, the GI50 was inactive: > 100 µM. Regarding `CCOC(=O)C1(C(C)=O)OC(=O)c2cnccc21` (centres undefined), the GI50 is inactive: > 100 µM.

As for `COc1ccc2c(-c3cc4ccccc4o3)cc(=O)oc2c1`, the GI50 was inactive: 38.7 µM. As for `CCOC(=O)C(=O)Nc1ccccc1CC`, the GI50 was inactive: > 100 µM. In the case of `O=C1OC(c2ccccc2)=N/C1=C\c1ccc(Oc2ccc(Cl)c(Cl)c2)cc1`, the GI50 was inactive: > 100 µM. Consider `NC12Oc3cc(O)cc(O)c3C1(c1ccc(Cl)cc1)c1c(O)cc(O)cc1O2` (centres undefined), for which the GI50 was inactive: 71.9 µM.

Regarding `COC(=O)c1cc(CNCCc2c[nH]c3ccccc23)on1`, the GI50 was inactive: > 100 µM. For the compound `CC(=O)Nc1cc2cc(N)ccc2oc1=O`, the GI50 was inactive: > 100 µM. The figure for `O=C(O)CCSC(=S)Nc1cccc(F)c1` is inactive: 88.3 µM; for `CCOC(=O)c1nc2ccc(C(F)(F)F)cc2nc1NCc1ccc(Cl)c(Cl)c1` it is inactive: 45.8 µM. For `CC12CC3(C)CC(C)(C1)CC(N=[N+]=[N-])(C2)C3`, the GI50 is inactive: > 100 µM. Turning to `N#CC(C(=O)CCC(=O)Nc1cccc(C(F)(F)F)c1)c1ccccc1` (centres undefined), the GI50 is inactive: > 100 µM. Consider `CCCCCCCCCCCC(=O)N(CCCCCCCCC)CC(O)C(O)C(OC1OC(CO)C(O)C(O)C1O)C(O)CO` (centres undefined), for which the GI50 is inactive: 20.9 µM. In the case of `CCOC(=O)CCSS(=O)(=O)C(F)(F)F`, the GI50 is inactive: > 100 µM. In the case of `NC(=O)CCC(NC(=O)c1c2ccccc2nc2ccccc12)C(=O)O` (centres undefined), the GI50 is inactive: > 100 µM. `C[n+]1ccc2[nH]c3ccccc3c2c1`: the GI50 was inactive: > 100 µM. For the compound `O=C(Nc1cccc(C(=O)NCCCO)c1)/C(=C/c1ccccc1)NC(=O)c1ccccc1`, the GI50 was inactive: > 100 µM. As for `CCN1/C(=C/C#C/C(C)=C\c2sc3ccc(Cl)cc3[n+]2CC)Sc2ccc(Cl)cc21`, the figure is inactive: 2 µM. As to `CSc1nc(NC2OC(COC(C)=O)C(OC(C)=O)C(OC(C)=O)C2OC(C)=O)c2c(OC(C)=O)c(C)c(=O)oc2n1` (centres undefined), the GI50 is inactive: > 100 µM. With `CCOC(=O)c1c(SCCN(CC)CC)n(-c2ccccc2)c(=S)n(-c2ccccc2)c1=O`, the GI50 is inactive: 17.6 µM. On to `Cc1sc2c(c1C)C(=O)c1cccn1-2`, for which the GI50 was inactive: > 100 µM.

For the compound `N#CC(C#N)=Cc1c[nH]c(=O)[nH]c1=O`, the GI50 was inactive: > 100 µM. In the case of `CCN1CCCCC(=N\O)/C(=N/O)CCCC1`, the GI50 was inactive: > 100 µM. As for `O=C(NCC(=O)N1CCOC1=O)OCc1ccccc1`, the GI50 was inactive: > 100 µM. With `CC(C)(C)/N=c1/n(C(C)(C)C)oc(=O)n1C(C)(C)C`, the GI50 is inactive: > 100 µM. The figure for `COc1ccccc1C1C(Cl)C(=O)N1n1cnc2ccccc2c1=O` (centres undefined) is inactive: > 100 µM; for `CN(C)S(=O)(=O)n1cnc(CO)c1` it is inactive: > 100 µM; for `CCCC(=O)Nc1cc(/C=C/C(=O)N2CC(CCl)c3c2cc(OCc2ccccc2)c2[nH]cc(C)c32)n(C)c1` (centres undefined) it is active: 0.138 µM. Take `N#C/C(C(=O)Nc1ccc(Cl)cc1)=C(/N)N1CCOCC1`: the GI50 is inactive: > 100 µM. As for `CCc1ccccc1NC(=O)CCc1n[nH]c(=S)o1`, the GI50 was inactive: > 100 µM. As for `COc1cc(/C=C/C(=O)C(C)(C)C)cc(OC)c1OC`, the figure is inactive: 29.4 µM; as for `COC(=O)C1CC=C(SC(=O)c2ccccc2)N1C(=O)c1ccccc1` (centres undefined), inactive: > 100 µM; as for `CC1=NOC(C)(O)/C1=N/O` (centres undefined), inactive: > 100 µM.

On to `O=C1/C(=C\c2cccc(Oc3ccccc3)c2)SC(c2ccccc2)N1Cc1ccccc1` (centres undefined), for which the GI50 was inactive: 55.5 µM. For `C[Si](C)(C)/C(I)=C/CO`, the GI50 is inactive: 28.5 µM. As to `COC(=O)C12CC3CC(CC(C(=O)O)(C3)C1)C2`, the GI50 was inactive: > 100 µM. Take `C[C@]12C[C@H](O)[C@H]3[C@@H](CCC4=CC(=O)CC[C@@]43C)[C@@H]1CC[C@@H]2c1csc(-c2ccccc2)n1`: the GI50 was inactive: 49.3 µM. Regarding `COc1ccc2nc3cc(Cl)ccc3c(Sc3ccc(N)cc3)c2c1`, the GI50 was inactive: 17.7 µM.

For `O=C(O)CC(Nc1ccccc1)C(=O)O` (centres undefined), the GI50 is inactive: > 100 µM.

Regarding `CC(=O)CC(=O)ON(C)C(=O)Cc1ccccc1`, the GI50 was inactive: > 100 µM. As to `CO[C@H]1SC[C@H](OC(C)=O)[C@H](OC(C)=O)[C@H]1OC(C)=O`, the GI50 is inactive: > 100 µM. For `CC(C)Oc1c(O)c2c3c(oc(=O)n3C=CC2c2ccccc2F)c1OC(C)C` (centres undefined), the GI50 was inactive: 35.6 µM. In the case of `N#Cc1c(=O)c2cc([N+](=O)[O-])ccc2n2c1[nH]c1ccccc12`, the GI50 was inactive: 3.66 µM. In the case of `O=C1CN=C(c2ccccc2)c2ccncc2N1`, the GI50 is inactive: > 100 µM. Regarding `CCCCc1ccc(N2C(=O)c3cc([N+](=O)[O-])cnc3S2(=O)=O)cc1`, the GI50 is inactive: 44.9 µM.

For `CC(C)(C)OC(=O)NC(Cc1ccccc1)C(=O)N[C@H]1c2ccsc2/C(=N/O)[C@H]1O` (some centres undefined), the GI50 is inactive: > 100 µM. Take `CC(=O)N(C(C)=O)n1c(Cc2ccc(C)cc2)nn(C(C)=O)c1=O`: the GI50 is inactive: > 100 µM. As for `CCOc1ccc2nc(NC(=O)C(=O)C3C(=O)C(CC4C(=O)c5ccccc5C4=O)C(=O)CC3(C)C)sc2c1` (centres undefined), the GI50 was inactive: > 100 µM. `Cc1ccc(C2=Nc3c(N)nc(N)nc3NC(c3ccccc3)C2)cc1` (centres undefined): the GI50 is inactive: 16.4 µM. In the case of `NC1=C(C(=O)O)C(=O)C(Nc2c(O)cccc2C(=O)O)=CC1=O`, the GI50 is inactive: 1.15 µM. Regarding `CC(NC(=O)C(C)NC(=O)C(N)CCP(C)(=O)O)C(=O)O` (centres undefined), the GI50 was inactive: > 100 µM. In the case of `O=C1CC2(CCC(O)(c3ccccc3)C(C(=O)c3ccccc3)C2)C(=O)c2ccccc2N1` (centres undefined), the GI50 was inactive: > 100 µM. Consider `Cc1ccc(C(=O)N/N=C(\N=N\c2cccc([N+](=O)[O-])c2)c2ccc(N(C)C)cc2)cc1`, for which the GI50 is inactive: 57.5 µM. As for `C1=Nc2ccccc2Cn2nncc21`, the figure is inactive: > 100 µM. For the compound `CC(C)=CCC/C(C)=C/CCC(C(=O)COCc1ccccc1)P1(=O)OC(C)(C)CN1C(C)(C)C` (centres undefined), the GI50 is inactive: 96.4 µM. As for `CCOC(=O)c1ccc(/N=C2\SC(=S)N(c3ccc(F)cc3)\C2=N/c2ccc(C(=O)OCC)cc2)cc1`, the figure is inactive: > 100 µM; as for `CCCCCCCCC[C@@H]1C[C@@H]2CCC3C(C(=O)OC)=C(C)N=C(N1)N32` (some centres undefined), inactive: 14.6 µM; as for `C#Cc1c(C)c(/C=C/C(C)=C/C=C/C(C)=C/C(=O)OC)n(C)c1C`, inactive: > 100 µM. `CCOC(=O)c1c(CN2CCNCC2)nc2ccccc2c1-c1ccccc1`: the GI50 is inactive: 15 µM. As for `COc1ccc(-c2csc3c2[N+]2(C)C=CC=C2C3N2CCCC2)cc1` (centres undefined), the figure is inactive: 55.2 µM. Take `O=c1cc(N2CCCC2)[nH]c(=O)n1-c1cccc(C(F)(F)F)c1`: the GI50 was inactive: > 100 µM. Regarding `O=C1C=CC(=O)C1(Br)Br`, the GI50 is inactive: 13.3 µM.

In the case of `CC(=O)Nc1ccc(SC#N)c2c(NC(C)=O)cccc12`, the GI50 was inactive: > 100 µM. Consider `Cc1nc(-c2cccnc2)sc1C(=O)CC(=O)C(=O)Nc1cccc(NC(=O)C(=O)CC(=O)c2sc(-c3cccnc3)nc2C)n1`, for which the GI50 is inactive: > 100 µM.

For `CCOC(=O)[N-]c1ccc(S(=O)(=O)[O+](C)CCl)cc1.CCOC(=O)[N-]c1ccc(S(=O)(=O)[O+](C)CCl)cc1.NC(=O)N=O.NC(=O)OCCCl`, the GI50 was inactive: > 100 µM. As for `CN(CCCCCl)P(=O)(OCc1ccc([N+](=O)[O-])o1)OC[C@H]1O[C@@H](n2cc(F)c(=O)[nH]c2=O)C[C@@H]1O` (some centres undefined), the figure is inactive: 4.39 µM.

As for `COc1cc(CCc2ccncc2)cc(OC)c1OC`, the GI50 was inactive: > 100 µM. As for `Cc1occc1C(=S)Nc1ccc(Cl)c(C(=O)OCC(C)C)c1`, the figure is inactive: 21.2 µM; as for `O=C(O)c1cnc2c(ccc3ncc(C(=O)O)c(O)c32)c1O`, inactive: > 100 µM; as for `COc1ccc(-c2cc(=O)c3c(OC)c(O)c(OC)cc3o2)cc1`, inactive: 42.8 µM. The figure for `CC1(C)CCC2=C(O1)c1ccccc1/C(=N/c1ccc([N+](=O)[O-])cc1)C2=O` is inactive: 15.1 µM; for `COc1cc(CNc2ccc(SC)cc2)cc(OC)c1OC` it is inactive: 17.5 µM.
